Measurements taken from the supplement of paper PMC3334620.
In all, about 33,000 sequences were measured (“E-score (-0.5 to 0.5)”: median about -0.016, highest 2% from about 0.31 on). The list shows a part of the results.

The sequences below were run against Cst6 (UniProt P40535) (assay: PBM E-score (8-mer binding enrichment) (E-score (-0.5 to 0.5)); higher = stronger / more preferred TF binding; most listed sequences are background and not binding sites). Conditions: protein concentration: 200 nM; construct: GST-DNA-binding domain.
Description: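 Universal 'all 10-mer' protein binding microarrays (Agilent AMADID 015681) probed with GST-tagged S. cerevisiae TFs (full-length or DBD) made by in vitro transcription/translation (PURExpress), about 100-200 nM. Bound TF was detected with fluorescent anti-GST. Each ungapped 8-mer (which stands for itself and its reverse complement) is scored by the PBM enrichment score (E-score), a modified Wilcoxon-Mann-Whitney statistic from -0.5 to +0.5, computed with the Universal PBM Analysis Suite. Scale: above 0.35 generally sequence-specific binding.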

Sequence	PBM E-score
CACCCACA	0.0319
CCACGGGA	-0.195
GATTATCC	-0.0969
ATTAGGGG	-0.244
CGCCCCCA	-0.282
GCTACTAA	0.0534
ATAGCATA	0.0409
GGAGCCAA	-0.27
GCCGGGGA	-0.179
AACGCGGA	0.165
ACCCGAAC	-0.0669
ATGGTACA	-0.0315
AGGGGTTG	-0.151
TGCGACAA	0.0517
GAAGAAGC	-0.109
AATATCAT	0.302
ACTCAACT	0.0493
TCCACAAA	0.119
AATCCTAA	-0.137
AGACAGTA	0.0472
AGGGGTAG	-0.359
GATTTTCA	0.229
GAAAGCTA	-0.229
AACGTCTG	0.0755
ACCCTACA	-0.0198

Sequence	PBM E-score
CCGCAGGC	0.0325
CATTCGAC	0.11
AAGCAGAA	0.0491
AATTGGGC	0.00688
CCTAGTGC	-0.0573
AAGCCACT	-0.0574
ACCCCTCC	-0.249
ACGAGACT	-0.0502
CTAGCAAA	0.0539
AAGGAGAT	0.0396
CGGGGCAC	-0.135
CCGGAATC	-0.294
CTACGGCC	-0.141
CGTTCCCC	-0.241
TGAATGCA	0.108
GGTAACGA	0.022
ACGTATGA	0.432
ACGATTTA	0.291
GGAATCCA	-0.12
GCTACTCC	-0.327
CTGTAAAA	0.148
ACAGTATA	0.129
AGCTCGAT	-0.0716
GATCTGGA	-0.0809
GAAGCTAA	-0.0787

Sequence	PBM E-score
GCTATCAA	0.0391
AGGTTATG	0.0904
CGCGCGTA	0.0723
AACAAATC	0.156
GTCTACCA	-0.0295
TGTCTCAA	-0.104
TATACCAA	0.159
AGTTCTCA	0.00496
CGGCGAAG	-0.0324
GTATTGAA	0.15
AAAAAATA	0.254
TCTGGCAA	-0.206
AGAACGCC	-0.0217
AATGTAAT	0.347
CCGCGTCC	0.099
GATTAACC	-0.185
AATGCAAA	0.239
GGCATGAA	0.134
ACACCCTG	-0.275
AATTCTCG	0.0737
CCCCCGTC	-0.348
GGCATCTA	0.102
GGACGTCA	0.468
ATTCTTAG	0.0174
ACAAACTA	0.0731

Sequence	PBM E-score
AATAGATA	0.303
GTCACGTA	0.224
CTCGCGAG	-0.0842
AATGTTGT	0.108
CTCTCCCC	-0.344
CGTCACGA	0.449
CGGCTACA	0.0164
GCTTTTCA	0.0237
AGGCACTC	-0.11
AATCCGGG	-0.22
ACCCTGTC	-0.281
AGTAAGTA	0.22
CGGTCCCA	-0.324
CCGGCGAA	-0.0664
CCGACACG	-0.12
ATGGGTGA	0.0883
CTCTCTAC	0.0611
GGGCACCA	-0.203
CGGTCGCA	-0.216
GTTCCACA	-0.157
CACGCCGA	-0.222
CGCAGGCA	-0.0708
ATACGTAA	0.463
CCAACCAG	-0.132
CAAATGGG	-0.158

Sequence	PBM E-score
GGAGCCAC	-0.209
ACTATTAT	0.182
ACTGGTTC	-0.0381
CCGCTGCG	-0.00591
ATGGTCTC	-0.0775
ATCGAGCA	-0.0198
ACACATGA	0.107
ATAGCGTG	-0.132
ATTGATTC	0.178
TCAACTGA	0.0881
AAATGGTG	0.194
AGGATAGC	0.0257
ACCGTCTG	0.00517
AACAGAAC	0.032
CACCTTAC	0.0625
AGGCTCTG	-0.106
TAGAAGGA	-0.285
TATCCAGA	-0.00054
CCGGGCCG	-0.14
ATGGAATG	-0.077
ACTGTATC	-0.0539
AACGCACC	-0.106
AAAAGGGG	-0.238
GGAAATAA	0.219
ATCTTCGC	0.0288

Sequence	PBM E-score
ATACAGTC	-0.143
CGCCATCA	-0.178
GGGGTGTA	-0.229
CGGGTTAA	-0.07
AGCACCTA	-0.227
CATGACGG	0.38
ATAGGTGC	-0.00875
TCGTAGAA	-0.0506
CATTACAG	0.0623
AGGCATAG	-0.0217
CCCCGGCA	-0.251
CGAGATAA	0.151
ACGCTCTC	-0.165
TCATATGA	0.248
GTAATTAA	0.188
GGTATCTA	0.0531
CTAACGTA	0.281
AGAGTGAC	0.135
CGTTGAGA	0.0363
AGGCTTTC	0.0839
ACAACTTG	-0.0384
CCTAATGA	0.0818
ACTATTGG	-0.185
CTATGTCA	0.392
ACACCACA	0.0618

Sequence	PBM E-score
ACCCTTGC	-0.229
ACGGCAAC	0.2
GATTATGC	-0.108
GATATAAA	0.211
AAGAACCT	-0.0978
CCCGAGCG	-0.168
AACCGGGT	-0.14
ACACAGAA	0.00996
CAGGTCAG	-0.119
GCAGGTCA	-0.21
AAGCAGCC	-0.0403
GGAAACGA	0.127
AACCGGTT	0.00038
AATGCCAT	0.196
TCCGCCGA	-0.078
AGAATTAA	0.0926
AAGTCATG	0.185
CACTGAGA	-0.134
AAATGAGA	0.056
ACACATTC	-0.0963
CGGCAGAG	-0.306
AATCGTTG	0.024
